In the antibiotic and cytotoxicity screens of Wong et al. (2023):
The other results are listed elsewhere or left out.

Tested on: HepG2
Test: cytotoxicity call (relative viability < 0.9)
Conditions: 10 µM

| Compound | cytotoxicity call |
| --- | --- |
| Cc1ccc2nc(SCc3ccc4ccccc4c3)[nH]c2c1 | active |
| C[C@@H]1CN([C@H](C)CO)C(=O)Cc2cc(NC(=O)Nc3ccc(C(F)(F)F)cc3)ccc2O[C@H]1CN(C)C(=O)NC1CCCCC1 | inactive |
| CN1C(CCl)Nc2cc(Cl)c(S(N)(=O)=O)cc2S1(=O)=O (stereo not given) | inactive |
| Cc1noc(C)c1NC(=O)Nc1ccc2c(c1)C(=O)N([C@H](C)CO)C[C@H](C)[C@H](CN(C)C(=O)c1ccccc1)OCCCC[C@@H](C)O2 | inactive |

Tested on: S. aureus RN4220
Test: growth inhibition call (relative growth <= 0.2)
Conditions: 50 µM

| Compound | growth inhibition call |
| --- | --- |
| C[C@H]1CN([C@@H](C)CO)C(=O)c2cc(C#CCN(C)C)cnc2O[C@@H]1CN(C)S(=O)(=O)c1cn(C)cn1 | inactive |
| COc1ccccc1CN1C(=O)c2ccccc2[C@](Cc2ccccc2I)(C(=O)NCCCN(C)C)[C@@H]1c1ccc(CO)cc1 | inactive |
| C[C@@H]1CCCCO[C@@H](CN(C)C(=O)Nc2cccc3ccccc23)[C@H](C)CN([C@H](C)CO)C(=O)c2cc(NS(C)(=O)=O)ccc2O1 | inactive |
| Cc1ccc(S(=O)(=O)N(C)C[C@H]2OCCCC[C@H](C)Oc3ccc(NC(=O)c4ccccc4)cc3C(=O)N([C@@H](C)CO)C[C@H]2C)cc1 | inactive |
| C[C@H]1CN([C@@H](C)CO)C(=O)c2cc(NS(=O)(=O)c3ccc(F)cc3)ccc2O[C@H]1CN(C)S(=O)(=O)c1cn(C)cn1 | inactive |
| Cc1noc(C)c1S(=O)(=O)Nc1cccc2c1O[C@@H](CN(C)Cc1ccc(Oc3ccccc3)cc1)[C@@H](C)CN([C@H](C)CO)C2=O | inactive |
| O=C1c2ccccc2[C@](Cc2ccccc2I)(C(=O)NCc2ccccc2)[C@H](c2ccc(CO)cc2)N1Cc1ccccc1C(F)(F)F | inactive |
| C[C@@H]1CN([C@H](C)CO)C(=O)c2cc(NC(=O)CCC(F)(F)F)ccc2O[C@@H](C)CCCCO[C@@H]1CN(C)C(=O)c1ccccc1 | inactive |
| COc1ccc(CN(C)C[C@H]2OCCCC[C@@H](C)Oc3ccc(NS(=O)(=O)c4ccc(Cl)cc4)cc3C(=O)N([C@@H](C)CO)C[C@@H]2C)cc1 | inactive |
| NCCONC(=O)[C@@H]1CC[C@@H]2CN1C(=O)N2OS(=O)(=O)O | inactive |
| O=C(C[C@H]1CC[C@@H](NC(=O)Cc2ccccn2)[C@H](CO)O1)NCCc1ccncc1 | inactive |
| C[C@@H]1CCCCO[C@H](CN(C)C(=O)Nc2cccc3ccccc23)[C@H](C)CN([C@@H](C)CO)C(=O)c2cc(NC(=O)NC3CCCCC3)ccc2O1 | inactive |
| Cc1nnsc1-c1onc(C)c1C(N)=O | inactive |
| C[C@@H]1CCCCO[C@H](CN(C)S(=O)(=O)c2cccs2)[C@@H](C)CN([C@@H](C)CO)C(=O)c2cc(NS(C)(=O)=O)ccc2O1 | inactive |
| COC(=O)[C@@H](N)CS[C@H]1CCCCO1 | inactive |
| CC(C)NC(=O)N(C)C[C@H]1OCCCC[C@H](C)Oc2ccc(NS(C)(=O)=O)cc2C(=O)N([C@@H](C)CO)C[C@H]1C | inactive |
| C[C@@H]1CCCCO[C@@H](CN(C)Cc2ccc(Cl)c(Cl)c2)[C@H](C)CN([C@H](C)CO)C(=O)c2cc(NC(=O)Nc3cccc4ccccc34)ccc2O1 | inactive |
| C[C@@H]1CCCCO[C@@H](CN(C)C(=O)NC2CCCCC2)[C@H](C)CN([C@@H](C)CO)C(=O)c2cc(NC(=O)Nc3ccc(C(F)(F)F)cc3)ccc2O1 | inactive |
| C[C@@H]1CCCCO[C@@H](CN(C)CC2CC2)[C@H](C)CN([C@H](C)CO)C(=O)c2cc(NC(=O)C3CCCCC3)ccc2O1 | inactive |
| C[C@@H]1CN([C@@H](C)CO)C(=O)c2cccc(NC(=O)Nc3ccc(C(F)(F)F)cc3)c2O[C@@H]1CN(C)Cc1ccc(C(=O)O)cc1 | inactive |
| CC(C)NC(=O)N(C)C[C@@H]1Oc2ccc(NS(=O)(=O)c3ccc(Cl)cc3)cc2CC(=O)N([C@@H](C)CO)C[C@@H]1C | inactive |
| O=Cc1ccc(CO)o1 | inactive |
| O=C(C[C@H]1C[C@H]2c3cc(NC(=O)Cc4ccncc4)ccc3O[C@H]2[C@@H](CO)O1)NCCN1CCCCC1 | inactive |
| COc1ccc(C#Cc2cnc3c(c2)C(=O)N([C@@H](C)CO)C[C@H](C)[C@@H](CN(C)CC2CCOCC2)O3)cc1 | inactive |
| CC(C)NC(=O)Nc1ccc2c(c1)C(=O)N([C@H](C)CO)C[C@H](C)[C@H](CN(C)C(=O)Nc1ccc(F)cc1)OCCCC[C@H](C)O2 | inactive |
| Cc1noc(C)c1NC(=O)Nc1ccc2c(c1)C(=O)N([C@H](C)CO)C[C@@H](C)[C@H](CN(C)Cc1ccc(Cl)c(Cl)c1)OCCCC[C@H](C)O2 | inactive |
